These results are taken from the supplement of paper PMC4166925.

± gives the standard deviation of the averaged measurements. Whole data set: some 33,000 sequences, median “E-score (dimensionless, -0.5 to 0.5)” near -0.046, cut for the highest 2% near 0.36. This is one part of the list.

The subject of this experiment is T1, SpTbr T-box DNA-binding domain (GST fusion).
T1 sequence: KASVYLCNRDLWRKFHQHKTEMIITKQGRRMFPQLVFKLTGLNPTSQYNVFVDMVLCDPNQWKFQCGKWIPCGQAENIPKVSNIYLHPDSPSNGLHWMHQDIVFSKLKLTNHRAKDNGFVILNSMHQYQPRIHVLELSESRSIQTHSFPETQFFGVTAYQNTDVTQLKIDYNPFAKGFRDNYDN
In words: PBM E-score of 8-mer (E-score (dimensionless, -0.5 to 0.5)); Tbr is Tbrain of the sea star Patiria miniata (Pm) or the sea urchin Strongylocentrotus purpuratus (Sp); higher = stronger binding preference; most listed sequences are background and not binding sites. The following applies: the construct has about 5 more residues each side. An outline of the steps: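 Primer extension turned Universal Agilent oligonucleotide arrays double-stranded. They were incubated with 200 nM protein in PBS (pH 7.5); the protein was a GST-fused Tbr T-box DNA-binding domain expressed in BL21 E. coli at 20 °C and purified on glutathione. Every ungapped 8-mer was scored from the scanned, quantified probe intensities, and the Universal PBM Analysis Suite gave each an enrichment E-score averaged over duplicate arrays.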
On to AACCCGCT, for which the “PBM E-score of 8-mer” value is 0.0344 ± 0.013. In the case of ACTGAATA it was -0.0993 ± 0.059; in that of AGAGACCA, -0.12 ± 0.063; in that of AACGACTA, -0.044 ± 0.02. Next, TCCGGCAA: -0.00319 ± 0.021; CGAGGTAA: -0.00371 ± 0.051; CTTAGGTA: -0.331 ± 0.15. In the case of AAATACTT it was 0.0242 ± 0.084; in that of GGCGTAAC, 0.0472 ± 0.011. With ATGATACA, the “PBM E-score of 8-mer” value was -0.00971 ± 0.019. Next, ACATACGC: 0.032 ± 0.014; CTATGGGA: -0.0806 ± 0.014; AAGTGCCC: -0.146 ± 0.044. In the case of ACCTTTCA it was -0.012 ± 0.093; in that of GACGATCC, -0.0101 ± 0.077. In the case of ACGCGGCG it was 0.105 ± 0.097; in that of GTCCTAGA, -0.18 ± 0.037. As for AAACCATG, the “PBM E-score of 8-mer” value was -0.0691 ± 0.0094. In the case of TGACGTCA it was 0.0843 ± 0.0046; in that of AGAACAGC, -0.108 ± 0.0036. Next, ATCATAGC: -0.0418 ± 0.013; GAACTACC: -0.148 ± 0.036. Take GAACACGC: the “PBM E-score of 8-mer” value worked out at 0.151 ± 0.011. In the case of CTGCTGAC it was 0.112 ± 0.041.

CTAATCTA: the “PBM E-score of 8-mer” value is -0.0284 ± 0.085.

For GTCAGATA, the “PBM E-score of 8-mer” value is -0.127 ± 0.057. Turning to ACGCTCAC, the “PBM E-score of 8-mer” value stood at 0.168 ± 0.039.

Turning to GATACAGC, the “PBM E-score of 8-mer” value was -0.226 ± 0.04.

As for CTGATTGC, the “PBM E-score of 8-mer” value turned out to be 0.0476 ± 0.069. In the case of TCTTAAGA it was -0.164 ± 0.0027.

For AAATCGGG, the “PBM E-score of 8-mer” value is -0.0718 ± 0.046. Next, ATATCTAA: -0.178 ± 0.048; CTCGGAGA: -0.282 ± 0.025; CTCCAATC: -0.225 ± 0.078.

On to GCCCAACC, for which the “PBM E-score of 8-mer” value was -0.105 ± 0.066.

As to CAGACACG, the “PBM E-score of 8-mer” value was found to be 0.117 ± 0.068. Next, ATATTGTC: 0.17 ± 0.039.

In the case of AAGAGCCT, the “PBM E-score of 8-mer” value was -0.323 ± 0.019. Next, ATGCTAAG: -0.00439 ± 0.073. Next, AACGTGTG: 0.4114 ± 0.0041; ACTGCACT: -0.114 ± 0.025.

For CGCAAAAC, the “PBM E-score of 8-mer” value came out at 0.172 ± 0.0026.

As for CTTGAGAC, the “PBM E-score of 8-mer” value was -0.0204 ± 0.048. With CATGACCG, the “PBM E-score of 8-mer” value was -0.218 ± 0.029.

As to CACGAATG, the “PBM E-score of 8-mer” value came out at 0.0901 ± 0.05. Next, ACGCCTTC: 0.3516 ± 0.0025. Next, AGACCTCT: -0.281 ± 0.035; ATAGGTAA: 0.0345 ± 0.088. Take AGTTAATA: the “PBM E-score of 8-mer” value is -0.0555 ± 0.028. In the case of AGACAGCT it was 0.0635 ± 0.052; in that of CTCACCGC, 0.0406 ± 0.0049; in that of GCACCCGC, 0.305 ± 0.035. In the case of AGGGTGAT, the “PBM E-score of 8-mer” value was 0.123 ± 0.024.

Take CGAATCGC: the “PBM E-score of 8-mer” value was 0.262 ± 0.029. In the case of ATCCTGCG, the “PBM E-score of 8-mer” value was -0.115 ± 0.054. In the case of TCCTTCCA it was -0.182 ± 0.039; in that of CATTATTC, -0.225 ± 0.088. Next, GGGAAGAA: -0.0153 ± 0.0055.

As to ACACAAGG, the “PBM E-score of 8-mer” value amounted to 0.164 ± 0.023. As to ATAGGTCG, the “PBM E-score of 8-mer” value is -0.084 ± 0.038.

In the case of ATGCCCAT, the “PBM E-score of 8-mer” value was -0.184 ± 0.01. ACTGCACA: the “PBM E-score of 8-mer” value turned out to be 0.0847 ± 0.033. For the sequence CATCGTCG, the “PBM E-score of 8-mer” value was determined as 0.208 ± 0.048. Next, CGAAGACC: -0.109 ± 0.036; CTCTTAAG: -0.29 ± 0.0099. For AGTCGCCA, the “PBM E-score of 8-mer” value worked out at 0.153 ± 0.067. In the case of ATCCCCGG it was -0.169 ± 0.022; in that of CTTTGAGC, -0.0941 ± 0.03; in that of TCTCGTAA, 0.003865 ± 3.5e-05. In the case of GTATTCAC, the “PBM E-score of 8-mer” value amounted to 0.28649 ± 0.00028. With CCCAGTCG, the “PBM E-score of 8-mer” value is -0.0208 ± 0.099.

In the case of ATGCTACG, the “PBM E-score of 8-mer” value turned out to be 0.0354 ± 0.032. As to AAACGTAC, the “PBM E-score of 8-mer” value is -0.237 ± 0.034.

As to AATTTCTG, the “PBM E-score of 8-mer” value was -0.212 ± 0.013.

With GAGCATAA, the “PBM E-score of 8-mer” value is -0.111 ± 0.0058.

For AAATTTAA, the “PBM E-score of 8-mer” value was -0.175 ± 0.088. Next, ATACGTAG: -0.323 ± 0.047; GTTCTGCA: -0.0557 ± 0.12; CCGTGCTA: 0.207 ± 0.026. Next, ACTCAGCC: -0.115 ± 0.013.

Regarding CCATAGGC, the “PBM E-score of 8-mer” value is -0.129 ± 0.012.

Turning to ACGAGCTG, the “PBM E-score of 8-mer” value was 0.0453 ± 0.016.

As to CAAGCGCA, the “PBM E-score of 8-mer” value was found to be 0.068 ± 0.0068.

With CTTCTGAC, the “PBM E-score of 8-mer” value stood at 0.0943 ± 0.011.

Regarding ACATGAAC, the “PBM E-score of 8-mer” value amounted to 0.0738 ± 0.077. As to ATCACAGG, the “PBM E-score of 8-mer” value worked out at 0.227 ± 0.05. In the case of TGCTCCAA it was -0.147 ± 0.025.

With CCACCAAC, the “PBM E-score of 8-mer” value is 0.0521 ± 0.059. Next, TAAAGACA: -0.0825 ± 0.03. Next, CGCCTCTC: 0.156 ± 0.062; GAATGCTC: -0.123 ± 0.047. As to CAGGCTGA, the “PBM E-score of 8-mer” value is -0.119 ± 0.0098. Next, CTCATAAC: -0.0809 ± 0.043; ATGACAAT: 0.187 ± 0.063.
